Results reported in PubChem BioAssay (NCI).
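Interpolation was linear, between the two tested concentrations surrounding the appropriate level; five concentrations were tested over 48 hours in 96-well plates. GI50 marks 50% less growth.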 The source holds more than one record for some entries. Only these are listed. An entry can have further records. For some assays here: A record mostly stands for its own series of concentrations, not given here; a value can be the end of its range.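 Definition used: TGI = concentration required for complete inhibition of growth.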 For some assays here: Values given together are repeats across runs, samples, wells, individuals or studies. Marks in square brackets tell the records apart. A, B and so on number the origins entry by entry.

Experiments:
Test in all cases: NCI-60 cell line screen, 48 h
BT-549 breast = tested on: BT-549 breast
LOX IMVI melanoma = tested on: LOX IMVI melanoma
UACC-257 melanoma = tested on: UACC-257 melanoma
CAKI-1 renal = tested on: CAKI-1 renal
SR leukemia = tested on: SR leukemia
HOP-92 NSCLC = tested on: HOP-92 NSCLC
U251 CNS = tested on: U251 CNS
HCT-15 colon = tested on: HCT-15 colon
HCT-116 colon = tested on: HCT-116 colon
RXF 393 renal = tested on: RXF 393 renal
HT29 colon = tested on: HT29 colon
RPMI-8226 leukemia = tested on: RPMI-8226 leukemia
CCRF-CEM leukemia = tested on: CCRF-CEM leukemia
SF-539 CNS = tested on: SF-539 CNS
COLO 205 colon = tested on: COLO 205 colon
MDA-N = tested on: MDA-N
HOP-62 NSCLC = tested on: HOP-62 NSCLC
MCF7 breast = tested on: MCF7 breast
SF-268 CNS = tested on: SF-268 CNS
SNB-19 CNS = tested on: SNB-19 CNS
A549 NSCLC = tested on: A549 NSCLC
SF-295 CNS = tested on: SF-295 CNS
OVCAR-5 ovarian = tested on: OVCAR-5 ovarian
K-562 leukemia = tested on: K-562 leukemia
SK-MEL-28 melanoma = tested on: SK-MEL-28 melanoma

With CCCCCCCCCCCC[C@@H](O)[C@H]1CC[C@H]([C@H](O)CC[C@H](O)[C@@H]2CC[C@@H](CCCCCCCC3=C[C@H](C)OC3=O)O2)O1 the TGI (BT-549 breast) was 1.11 µM and > 50 µM, the TGI (LOX IMVI melanoma) was 4.96 µM and > 50 µM and the TGI (UACC-257 melanoma) was 4.84 µM and > 50 µM.
In the case of COc1cc2nnc3c4cccnc4[nH]c3c2cc1OC, the TGI (CAKI-1 renal) is reported as 4.51 µM and 430 nM, the TGI (SR leukemia) is reported as 50 µM and 262 nM and the TGI (HOP-92 NSCLC) is reported as 50 µM and 1.75 µM. For the same compound, the TGI (U251 CNS) was 50 µM and 4.38 µM, the TGI (HCT-15 colon) was 50 µM and 3.88 µM and the TGI (HCT-116 colon) was 50 µM and 333 nM. The TGI (RXF 393 renal) was 50 µM and 3.19 µM, the TGI (HT29 colon) was 50 µM and 3.75 µM and the TGI (RPMI-8226 leukemia) was 50 µM and 986 nM. The GI50 (CCRF-CEM leukemia) was > 50 µM and 34.7 nM and the TGI (CCRF-CEM leukemia) was > 50 µM and 149 nM.
In the case of O=C1CC(c2cccc(Cl)c2)Nc2ccc(N3CCCC3)cc21 (stereo not given), the TGI (SF-539 CNS) is reported as 89.7 nM and > 100 µM, the TGI (COLO 205 colon) is reported as 657 nM and 17.2 µM and the TGI (HCT-116 colon) is reported as 3.24 µM and > 100 µM. The TGI (MDA-N) was 32.1 nM and > 100 µM.
COC12C(COC(=O)NCCO)C3=C(C(=O)C(C)=C(N)C3=O)N1CC1NC12 (stereo not given) was tested, and the TGI (U251 CNS) was 23.4 µM and > 264 µM.
For O=[N+]([O-])c1cccc2nc3ccccc3c(NCCCCCNc3c4ccccc4nc4cccc([N+](=O)[O-])c34)c12, the TGI (HOP-62 NSCLC) was 343 nM and 24.2 nM, the TGI (MCF7 breast) was 184 nM and 13.8 nM and the TGI (SF-268 CNS) was 506 nM and 37.3 nM. The TGI (SNB-19 CNS) was 1.74 µM and 12.9 nM, the TGI (U251 CNS) was 914 nM and 36.2 nM and the TGI (LOX IMVI melanoma) was 591 nM and 29 µM. For the same compound, the TGI (CCRF-CEM leukemia) was 424 nM and 27.5 nM and the TGI (A549 NSCLC) was 2.14 µM and 95.7 nM.
For CC(=O)O[C@H]1CC2C(C3CC[C@H](C(C)CCC(=O)O)[C@]31C)[C@H](OC(C)=O)C[C@@H]1CC3(CC[C@]21C)OOC1(CCC(C)CC1)OO3 (stereo not given in full), the TGI (LOX IMVI melanoma) was > 100 µM [sample A] and 4.68 µM [sample B].
In the case of CC[C@H](C)[C@H](NC(=O)[C@H]1CCCCN1C)C(=O)N(C)[C@H](C[C@@H](OC(C)=O)c1nc(C(=O)NC23CC(C(=O)OC)(C2)C3)cs1)C(C)C, the TGI (HOP-62 NSCLC) is reported as 84 nM and > 32.5 µM, the GI50 (MCF7 breast) is reported as 0.267 nM and 3.25 nM and the TGI (SF-295 CNS) is reported as 46.1 nM and > 32.5 µM. The GI50 (OVCAR-5 ovarian) was 31.5 nM and 531 nM, the GI50 (K-562 leukemia) was 0.253 nM and 3.25 nM and the GI50 (SK-MEL-28 melanoma) was 35.6 nM and 5.87 µM. For the same compound, the GI50 (SR leukemia) was 0.0649 nM and 3.25 nM.
